From patent publication US9199944B2 (priority 2012, dated 2015)

Key:
Test in all cases: cells
[1] = system: Hs746T (stomach cancer cells); settings: Homo sapiens, 72 h, read-out: Hs746TCP GI50 (μM)
[2] = system: H1993 (lung cancer cells); settings: Homo sapiens, NCI-H1993, 72 h, read-out: H1993CP GI50 (μM)
[3] = system: H2228 (lung cancer cells); settings: Homo sapiens, NCI-H2228, 72 h, read-out: H2228CP GI50 (μM)
[4] = system: H3122 (lung cancer cells); settings: Homo sapiens, NCI-H3122, 72 h, read-out: H3122CP GI50 (μM)

Row | SMILES | GI50 [1] | GI50 [2] | GI50 [3] | GI50 [4]
1 | COc1cc(N2CCN(C(C)=O)CC2)ccc1Nc1ncc(C(F)(F)F)c(Nc2ccc(N3CCNCC3)cc2OC)n1 [Example 56, 1-(4-(3-methoxy-4-((4-((2-methoxy-4-(piperazin-1-yl)phenyl)amino)-5-(trifluoromethyl)pyrimidin-2-yl)amino)phenyl)piperazin-1-yl)ethanone] | 2.74 µM | 2.33 µM | 0.127 µM | 0.001 µM
2 | COc1cc(N2CCN(C(C)=O)CC2)ccc1Nc1ncc(F)c(Nc2ccc(N3CCN(S(C)(=O)=O)CC3)cc2OC)n1 [Example 26, 1-(4-(4-(5-fluoro-4-(2-methoxy-4-(4-(methylsulfonyl)piperazin-1-yl)phenylamino)pyrimidin-2-ylamino)-3-methoxyphenyl)piperazin-1-yl)ethanone] | > 10 µM | 3.38 µM | 0.406 µM | 0.029 µM
3 | COc1cc(N2CCN(S(C)(=O)=O)CC2)ccc1Nc1ncc(Cl)c(Nc2ccc(N3CCN(S(C)(=O)=O)CC3)cc2OC)n1 [Example 79] | 8.11 µM | > 10 µM | 0.29 µM | 0.3 µM
4 | COc1cc(N2CCN(C(C)=O)CC2)ccc1Nc1ncc(Cl)c(Nc2ccc(N3CCN(C(=O)OC(C)(C)C)CC3)cc2OC)n1 [Example 15, tert-butyl 4-(4-(2-(4-(4-acetylpiperazin-1-yl)-2-methoxyphenylamino)-5-chloropyrimidin-4-ylamino)-3-methoxyphenyl)piperazin-1-carboxylate] | 3.74 µM | 8.86 µM | 0.692 µM | 0.918 µM
5 | COc1cc(N2CCN(C(C)=O)CC2)ccc1Nc1ncc(C(F)(F)F)c(Nc2ccc(N3CCN(C)CC3)cc2OC)n1 [Example 59] | 2.27 µM | 9.34 µM | 0.351 µM | 0.0009 µM
6 | COc1cc(N2CCN(C(C)=O)CC2)ccc1Nc1ncc(F)c(Nc2ccc(N3CCN(C)CC3)cc2OC)n1 [Example 30, 1-(4-(4-(5-fluoro-4-(2-methoxy-4-(4-methylpiperazin-1-yl)phenylamino)pyrimidin-2-ylamino)-3-methoxyphenyl)piperazin-1-yl)ethanone] | > 10 µM | 7.81 µM | 0.224 µM | 0.017 µM
7 | CCOc1cc(N2CCN(C(C)=O)CC2)ccc1Nc1nc(Nc2ccc(N3CCN(C(C)=O)CC3)cc2)ncc1Cl [Example 6, 1-(4-(4-(4-(4-(4-acetylpiperazin-1-yl)-2-ethoxyphenylamino)-5-chloropyrimidin-2-ylamino)phenyl)piperazin-1-yl)ethanone] | 0.9 µM | 0.93 µM | 0.36 µM | 0.22 µM
8 | COC(=O)N1CCN(c2ccc(Nc3nc(Nc4ccc(N5CCN(C(C)=O)CC5)cc4OC)ncc3F)c(OC(F)F)c2)CC1 [Example 41, methyl 4-(4-(2-(4-(4-acetylpiperazin-1-yl)-2-methoxyphenylamino)-5-fluoropyrimidin-4-ylamino)-3-(difluoromethoxy)phenyl)piperazin-1-carboxylate] | 6.14 µM | 9.88 µM | 0.78 µM | 0.306 µM
9 | COc1cc(N2CCN(C(=O)CO)CC2)ccc1Nc1ncc(C(F)(F)F)c(Nc2ccc(N3CCN(C(=O)CO)CC3)cc2OC)n1 [Example 72, 1,1′-(4,4′-(((5-(trifluoromethyl)pyrimidin-2,4-diyl)bis(azanediyl))bis(3-methoxy-4,1-phenylene))bis(piperazin-4,1))bis(2-hydroxyethanone)] | 3.16 µM | 8.85 µM | 1.14 µM | 0.0081 µM
10 | CCOc1cc(N2CCN(C(C)=O)CC2)ccc1Nc1nc(Nc2ccc(N3CCN(C(C)=O)CC3)cc2OC)ncc1Cl [Example 1, 1-(4-(4-(4-(4-(4-acetylpiperazin-1-yl)-2-ethoxyphenylamino)-5-chloropyrimidin-2-ylamino)-3-methoxyphenyl)piperazin-1-yl)ethanone] | 3.43 µM | 6.91 µM | 1.59 µM | 0.96 µM
11 | CCC(=O)N1CCN(c2ccc(Nc3nc(Nc4ccc(N5CCN(C(C)=O)CC5)cc4OC)ncc3Cl)c(OC)c2)CC1 [Example 22, 1-(4-(4-(2-(4-(4-acetylpiperazin-1-yl)-2-methoxyphenylamino)-5-chloropyrimidin-4-ylamino)-3-methoxyphenyl)piperazin-1-yl)propan-1-one] | 3.42 µM | 9.91 µM | 0.174 µM | 0.126 µM
12 | CCCOc1cc(N2CCN(C(C)=O)CC2)ccc1Nc1nc(Nc2ccc(N3CCN(C(C)=O)CC3)cc2)ncc1Cl [Example 4, 1-(4-(4-(4-(4-(4-acetylpiperazin-1-yl)-2-propoxyphenylamino)-5-chloropyrimidin-2-ylamino)phenyl)piperazin-1-yl)ethanone] | 1.38 µM | 3.47 µM | 0.32 µM | 0.19 µM
13 | CCNC(=O)N1CCN(c2ccc(Nc3ncc(Cl)c(Nc4ccc(N5CCN(C(=O)NCC)CC5)cc4OC)n3)c(OC)c2)CC1 [Example 78, 4,4′-(((5-chloropyrimidin-2,4-diyl)bis(azanediyl))bis(3-methoxy-4,1-phenylene))bis(N-ethylpiperazin-1-carboxyamide)] | 5.06 µM | > 10 µM | 0.93 µM | 0.43 µM
14 | CCCOc1cc(N2CCN(C(C)=O)CC2)ccc1Nc1nc(Nc2ccc(N3CCN(C(C)=O)CC3)cc2OC)ncc1Cl [Example 2, 1-(4-(4-(2-(4-(4-acetylpiperazin-1-yl)-2-methoxyphenylamino)-5-chloropyrimidin-4-ylamino)-3-propoxyphenyl)piperazin-1-yl)ethanone] | 2.86 µM | 7.25 µM | 1.42 µM | 0.874 µM
15 | COc1cc(N2CCN(C(=O)OC(C)(C)C)CC2)ccc1Nc1ncc(C(F)(F)F)c(Nc2ccc(N3CCN(C(C)=O)CC3)cc2OC)n1 [Example 62, tert-butyl-4-(4-((4-((4-(4-acetylpiperazin-1-yl)-2-methoxyphenyl)amino)-5-(trifluoromethyl)pyrimidin-2-yl)amino)-3-methoxyphenyl)piperazin-1-carboxylate] | 2.19 µM | 2.46 µM | 0.72 µM | 0.22 µM
16 | COc1cc(N2CCN(C(C)=O)CC2)ccc1Nc1ccnc(Nc2ccc(N3CCN(C(C)=O)CC3)cc2OC)n1 [Example 19, 1,1′-(4,4′-(4,4′-(pyrimidin-2,4-diylbis(azanediyl))bis(3-methoxy-4,1-phenylene))bis(piperazin-4,1-diyl))diethanone] | > 10 µM | > 10 µM | 0.961 µM | 1.1 µM
17 | CC(=O)N1CCN(c2ccc(Nc3ncc(C(F)(F)F)c(Nc4ccc(N5CCN(C(C)=O)CC5)cc4OC(F)F)n3)c(OC(F)F)c2)CC1 [Example 73] | 0.37 µM | 7.92 µM | 8.09 µM | 0.941 µM
18 | COc1cc(N2CCN(C(C)=O)CC2)ccc1Nc1nc(Nc2ccc(N3CCN(C(C)=O)CC3)cc2)ncc1F [Example 24, 1-(4-(4-(4-(4-(4-acetylpiperazin-1-yl)-2-methoxyphenylamino)-5-fluoropyrimidin-2-ylamino)phenyl)piperazin-1-yl)ethanone] | 1.86 µM | 13.1 µM | 0.932 µM | 0.734 µM
